T1: UNK ZnF1-3 (human, UniProt Q9C0B0 31-174)
T1 sequence: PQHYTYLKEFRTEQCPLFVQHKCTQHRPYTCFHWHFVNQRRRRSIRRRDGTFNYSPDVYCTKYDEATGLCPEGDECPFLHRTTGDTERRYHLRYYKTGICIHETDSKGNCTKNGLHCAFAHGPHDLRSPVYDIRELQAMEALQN

B1: chr11:87793471:87793472:-_ENSMUSG00000020483_ENSMUST00000020775|mus_mus|mus_mus_mus_hu_False|8_88 (ssRNA)
RNA: GGGAGUUCUACAGUCCGACGAUCUGGACUUGAAAAUAAAAGAAUAAGCUAGAUUUCCCACCCCCCCACAUUGUCAACCCUACACGAGAGUUUUGAAGGCGACUCAUGAAAAUCAGCAGCUCAAACGAAUGACAACCCCCCACCCAACAGAGGAUUGAGCAUCA
B2: chr2:27445747:27445748:+_ENSG00000084774_ENST00000264705|hu_mus|motif|central (ssRNA)
RNA: GGGAGUUCUACAGUCCGACGAUCAGAGGCAGGGUCACCGGGUCCAUUACUUAGGAAGAGACCGUCAUAUUUCUGACUGUCGGACUCGUGGUCCCAGGGUACCACGGUAACUUCAGCCCCAAGCUGGCAGAGACAUCGGAUCUGCAACAGAGGAUUGAGCAUCA
B3: chr10:57939204:57939205:+_ENSMUSG00000003226_ENSMUST00000003310|mus_mus|FALSE|FALSE (ssRNA)
RNA: GGGAGUUCUACAGUCCGACGAUCGGGUGGCCUUAUUACUUCACCCUGCAUGGGCUGAACGAAAUUGGAUUUUCCAAAUUCUAUAACCUUUGAUUCUGCUGACCUUGAAGCGUGAGCUACAAGUGGAGGCUUUGUGAAAUACCCCAACAGAGGAUUGAGCAUCA
B4: chr11:20202655:20202656:-_ENSMUSG00000020142_ENSMUST00000109594|mus_hu|motif|central (ssRNA)
RNA: GGGAGUUCUACAGUCCGACGAUCUGUAGUUAAUAGUUAAGUUCCCCUCUAUCCAAACACAAACUUGCUUGGCUUGGAGCGGAAACGGUACACACACGCACACACACACAUGCAUAUACACAACACACAUGUGUGUAUAGAUAUCAACAGAGGAUUGAGCAUCA
B5: 120575372_120575492_6592_CDS_ENSG00000089154_ENST00000300648|human|control|control (ssRNA)
RNA: GGGAGUUCUACAGUCCGACGAUCCCAGCUCUCCUCCAGAACCACAGGGCUGGAGUCAUUGAAGAGGCGGAUCAGGCCCGAGACCAGGCUCCGCAGGUGGCUGGUGUAGUCAGCCUUUGAGCGGGAACAGUAGAUGUUGAGGAUCAACAGAGGAUUGAGCAUCA
B6: 51244685_51244805_938_3pUTR_ENSMUSG00000021395_ENSMUST00000095797|mouse|control|control (ssRNA)
RNA: GGGAGUUCUACAGUCCGACGAUCACGUUUACCACCUUGCUUGUAACCCCCAACAGACAGCUUUCUUGUAAGAGGGAAGACCCCCUCACACAGAUGCUUUGAAGAGGGAGGACUCCCCUCACAGAUGCCUUGUGUUCGAAUCAGCAACAGAGGAUUGAGCAUCA
B7: chr7:7679991:7679992:-_ENSG00000106399_ENST00000396682|hu_hu|hu_hu_hu_mus_False|28_88 (ssRNA)
RNA: GGGAGUUCUACAGUCCGACGAUCUGGGAUGAAUCUUUUCCAGCUUCCCUACGAAGCACACGGGCCGGUCGAUAUACUGUGGUAACAUGCUGGCGUUGACGCGCGCUCUGGGCAAGUGCAUUAUGUCCUCCAUGAUUCUGCCGCCAACAGAGGAUUGAGCAUCA
B8: 121282780_121282900_235_3pUTR_ENSMUSG00000074884_ENSMUST00000148575|mouse|control|control (ssRNA)
RNA: GGGAGUUCUACAGUCCGACGAUCUCUAACUCCAACUCCACGUCUCCCUCGGUCGCCAUUUCGAUCUCACCGCGCCGCCGCAUAGGCUGCCGCUUCACAACUUCCGGCAACCCUCACAGCUUCCGCCCAGAUAAGGGGCGGGGUCAACAGAGGAUUGAGCAUCA
B9: chr1:130485734:130485735:-_ENSMUSG00000045382_ENSMUST00000052172|mus_mus|mus_mus_mus_hu_False|38_88 (ssRNA)
RNA: GGGAGUUCUACAGUCCGACGAUCGAUGAAGGAGUCGAUGCUGAUCCCCACAUAAUAAGGCAGCCAACAGGCGAAGAAAGCCAGGAUGAGGAUGACUGUCGUCUUGAGGGCCUUGCGCUUCUGGUGGCCCUUGGAGUGUGACAGCAACAGAGGAUUGAGCAUCA
B10: chr2:168010559:168010560:-_ENSMUSG00000051149_ENSMUST00000088001|perfect_dup|FALSE|FALSE (ssRNA)
RNA: GGGAGUUCUACAGUCCGACGAUCUUCCAAAGUCUUUUUGUCUGCAUUGAAGGUACAGUAGGGGCAAUUAAGGAGAAUCCUAUUUUCAAAGUCUUCACUAUGGACAUUGCGGAAAUGACUUUUGUAGGCAGAGAAGAAUUUUGACAACAGAGGAUUGAGCAUCA
B11: 171496935_171501553_1508_CDS_ENSG00000117523_ENST00000367742|human|control|control (ssRNA)
RNA: GGGAGUUCUACAGUCCGACGAUCAUCAGCUACUUGCUGCUUGGAGGGAAAGGGGCCUGGUCUUCCAGGUACUGCCUGUCGAUCUGGAGGUGGAUGCUGCUGUGCAAGCAACUUUGGAGGUGGUGGCAGAUGUGAAGAUGUUCCCAACAGAGGAUUGAGCAUCA
B12: chr5:71490377:71490378:+_ENSG00000131711_ENST00000296755|hu_mus|motif|central (ssRNA)
RNA: GGGAGUUCUACAGUCCGACGAUCGCCCACUCCCAUCUUCUGGAACAGGAUGACAGGCUCAAUGGUAUUGCCUACACUUCGGAAUAGAGGCUCUGGUUUCAUGGACAGUUUGUUUAAGUACUGGAGAGUGAAGCAUGCUUCUUCCAACAGAGGAUUGAGCAUCA
B13: chr17:45747064:45747065:+_ENSG00000108424_ENST00000290158|hu_hu|hu_hu_hu_mus_True|18_98 (ssRNA)
RNA: GGGAGUUCUACAGUCCGACGAUCGCCCACAGUCCACGCAGCUGUAUCUCGAACAACUACACUGGGGUCUUUCAUUAGUUCUAUUAGGGUGGGCAUAGCCUGUAUGACUAAUGGUUUGAGCUGACUGGGCUCUGGUCCUUCCAACAACAGAGGAUUGAGCAUCA
B14: 120916490_120918314_339_3pUTR_ENSG00000154114_ENST00000422003|human|control|control (ssRNA)
RNA: GGGAGUUCUACAGUCCGACGAUCCAGCAAUUUCUUUUUCAUCUCCUGCACAGGUUAUUCCACAGCUGUUCAACACUAGUACACUUGGGAGGUUGAGGCGAUCUUUCAUAGGAGAGCCCUGAGGUGUGGCUGGGACAUGGACUCCAACAGAGGAUUGAGCAUCA

The source of these data is publication PMC12136788.

Some of the results follow.

For this assay, the target named is T1, UNK ZnF1-3. Nature of the assay: nsRBNS (natural sequence RNA bind-n-seq); RBNS binding buffer (assumed for nsRBNS): 25 mM Tris pH 7.5, 150 mM KCl, 3 mM MgCl2, 0.01% Triton X-100, 500 ug/ml BSA, 20 U/ml SUPERase-In, 4 C; UNK is unkempt and MSI1 is Musashi-1; names of the RNAs are library labels; protein concentration not given here; high values mean tight binding.
B1 yielded a binding signal of 1.91 enrichment R.
Consider B2, for which the binding signal was 1.13 enrichment R.
B3 returned a binding signal of 0.875 enrichment R.
In the case of B4, the binding signal was 0.255 enrichment R.
Consider B5, for which the binding signal came to 1.5 enrichment R.
With B6 the figure was 0.707 enrichment R; with B7, 0.75 enrichment R.
Take B8: the binding signal turned out to be 0.801 enrichment R.
Regarding B9, the binding signal was determined as 0.981 enrichment R.
B10 showed a binding signal of 1.15 enrichment R.
With B11 the figure was 0.941 enrichment R; with B12, 0.899 enrichment R; with B13, 0.746 enrichment R.
Molecule B14 showed a binding signal of 1.34 enrichment R.
